# Test results as given in the supplement of paper PMC8728848.
# The other results are listed elsewhere or left out.
# B1: Cohesin-hDC-ASGPR (Homo sapiens) (protein)
# chain: LDDLDAVRIKVDTVNAKPGDTVRIPVRFSGIPSKGIANCDFVYSYDPNVLEIIEIEPGDIIVDPNPDKSFDTAVYPDRKIIVFLFAEDSGTGAYAITKDGVFATIVAKVKEGAPNGLSVIKFVEVGGFANNDLVEQKTQFFDGGANVGDTTEPATPTTPVTTPTTTDDLDAASQNSKFQRDLVTLRTDFSNFTSNTVAEIQALTSQGSSLEETIASLKAEVEGFKQERQAGVSELQEHTTQKAHLGHCPHCPSVCVPVHSEMLLRVQQLVQDLKKLTCQVATLNNNASTEGTCCPVNWVEHQDSCYWFSHSGMSWAEAEKYCQLKNAHLVVINSREEQNFVQKYLGSAYTWMGLSDPEGAWKWVDGTDYATGFQNWKPGQPDDWQGHGLGGGEDCAHFHPDGRWNDDVCQRPYHWVCEAGLGQTSQESHHHHHH
# Assays:
# Test in all cases: glycan array binding signal (z-score within array); higher = stronger binding
# Conditions in all cases: glycan notation: IUPAC condensed, linker removed
# Gal3S6S(b1-4)GlcNAc = target: Gal3S6S(b1-4)GlcNAc
# Procedure, shortened: (§1)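 The binding signal is a Z-score computed within each array. Data were drawn from 3228 arrays in the Consortium for Functional Glycomics database, restricted to those with a known protein sequence. Scores were averaged over arrays of the same protein sequence at different concentrations or buffers, and over linkers, and negative values can be taken as non-binding.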
# Gal3S6S(b1-4)GlcNAc6S = target: Gal3S6S(b1-4)GlcNAc6S
# Procedure, shortened: as §1
# Gal4S(b1-4)GlcNAc = target: Gal4S(b1-4)GlcNAc
# Procedure, shortened: as §1
# Gal4S6S(b1-4)GlcNAc = target: Gal4S6S(b1-4)GlcNAc
# Procedure, shortened: as §1
# Gal6P(b1-4)GlcNAc = target: Gal6P(b1-4)GlcNAc
# Procedure, shortened: as §1
# Gal6S(b1-3)GlcNAc = target: Gal6S(b1-3)GlcNAc
# Procedure, shortened: as §1
# Gal6S(b1-3)GlcNAc6S = target: Gal6S(b1-3)GlcNAc6S
# Procedure, shortened: as §1
# Gal6S(b1-4)Glc = target: Gal6S(b1-4)Glc
# Procedure, shortened: as §1
# Gal6S(b1-4)Glc6S = target: Gal6S(b1-4)Glc6S
# Procedure, shortened: as §1
# Gal6S(b1-4)GlcNAc = target: Gal6S(b1-4)GlcNAc
# Procedure, shortened: as §1
# Gal6S(b1-4)GlcNAc6S = target: Gal6S(b1-4)GlcNAc6S
# Procedure, shortened: as §1
# GalNAc(a1-3)Gal = target: GalNAc(a1-3)Gal
# Procedure, shortened: as §1
# GalNAc(a1-3)GalNAc = target: GalNAc(a1-3)GalNAc
# Procedure, shortened: as §1
# [1] = target: GalNAc(a1-3)GalNAc(b1-3)Gal(a1-4)Gal(b1-4)Glc
# Procedure, shortened: as §1
# [2] = target: GalNAc(a1-3)GalNAc(b1-3)Gal(a1-4)Gal(b1-4)GlcNAc
# Procedure, shortened: as §1
# GalNAc(b1-3)Gal = target: GalNAc(b1-3)Gal
# Procedure, shortened: as §1
# [3] = target: GalNAc(b1-3)Gal(a1-4)Gal(b1-4)GlcNAc
# Procedure, shortened: as §1
# [4] = target: GalNAc(b1-3)Gal(a1-4)Gal(b1-4)GlcNAc(b1-3)Gal(b1-4)Glc
# Procedure, shortened: as §1
# [5] = target: GalNAc(b1-3)Gal(a1-6)Gal(b1-4)Glc
# Procedure, shortened: as §1
# GalNAc(b1-3)GalNAc = target: GalNAc(b1-3)GalNAc
# Procedure, shortened: as §1
# GalNAc(b1-3)GlcNAc = target: GalNAc(b1-3)GlcNAc
# Procedure, shortened: as §1
# GalNAc(b1-4)Gal(b1-4)Glc = target: GalNAc(b1-4)Gal(b1-4)Glc
# Procedure, shortened: as §1
# GalNAc(b1-4)GlcNAc = target: GalNAc(b1-4)GlcNAc
# Procedure, shortened: as §1
# [6] = target: GalNAc(b1-4)GlcNAc(b1-2)Man
# Procedure, shortened: as §1
# [7] = target: GalNAc(b1-4)GlcNAc(b1-2)Man(a1-3)[GalNAc(b1-4)GlcNAc(b1-2)Man(a1-6)]Man(b1-4)GlcNAc(b1-4)GlcNAc
# Procedure, shortened: as §1
# [8] = target: GalNAc(b1-4)GlcNAc(b1-3)GalNAc(b1-4)GlcNAc
# Procedure, shortened: as §1
# GalNAc(b1-4)GlcNAc6S = target: GalNAc(b1-4)GlcNAc6S
# Procedure, shortened: as §1
# GalNAc(b1-6)GalNAc = target: GalNAc(b1-6)GalNAc
# Procedure, shortened: as §1
# GalNAc3S(b1-4)GlcNAc = target: GalNAc3S(b1-4)GlcNAc
# Procedure, shortened: as §1
# GalNAc3S(b1-4)GlcNAc3S = target: GalNAc3S(b1-4)GlcNAc3S
# Procedure, shortened: as §1
# [9] = target: GalNAc3S(b1-4)[Fuc(a1-3)]GlcNAc
# Procedure, shortened: as §1
# GalNAc4S6S(b1-4)GlcNAc = target: GalNAc4S6S(b1-4)GlcNAc
# Procedure, shortened: as §1
# GalNAc6S(b1-4)GlcNAc = target: GalNAc6S(b1-4)GlcNAc
# Procedure, shortened: as §1
# Glc(a1-4)Glc = target: Glc(a1-4)Glc
# Procedure, shortened: as §1
# [10] = target: Glc(a1-4)Glc(a1-4)Glc(a1-4)Glc
# Procedure, shortened: as §1
# Glc(a1-6)Glc(a1-6)Glc = target: Glc(a1-6)Glc(a1-6)Glc
# Procedure, shortened: as §1
# [11] = target: Glc(a1-6)Glc(a1-6)Glc(a1-6)Glc
# Procedure, shortened: as §1
# Glc(b1-4)Glc = target: Glc(b1-4)Glc
# Procedure, shortened: as §1
binder,measurement,setting,value
B1,glycan array binding signal (z-score),Gal3S6S(b1-4)GlcNAc,-0.369
same,glycan array binding signal (z-score),Gal3S6S(b1-4)GlcNAc6S,-0.453
same,glycan array binding signal (z-score),Gal4S(b1-4)GlcNAc,-0.49
same,glycan array binding signal (z-score),Gal4S6S(b1-4)GlcNAc,-0.471
same,glycan array binding signal (z-score),Gal6P(b1-4)GlcNAc,-0.411
same,glycan array binding signal (z-score),Gal6S(b1-3)GlcNAc,-0.443
same,glycan array binding signal (z-score),Gal6S(b1-3)GlcNAc6S,-0.215
same,glycan array binding signal (z-score),Gal6S(b1-4)Glc,-0.443
same,glycan array binding signal (z-score),Gal6S(b1-4)Glc6S,-0.434
same,glycan array binding signal (z-score),Gal6S(b1-4)GlcNAc,-0.312
same,glycan array binding signal (z-score),Gal6S(b1-4)GlcNAc6S,-0.486
same,glycan array binding signal (z-score),GalNAc(a1-3)Gal,2.61
same,glycan array binding signal (z-score),GalNAc(a1-3)GalNAc,2.37
same,glycan array binding signal (z-score),[1],2.11
same,glycan array binding signal (z-score),[2],1.97
same,glycan array binding signal (z-score),GalNAc(b1-3)Gal,2.76
same,glycan array binding signal (z-score),[3],2.71
same,glycan array binding signal (z-score),[4],2.52
same,glycan array binding signal (z-score),[5],2.84
same,glycan array binding signal (z-score),GalNAc(b1-3)GalNAc,-0.484
same,glycan array binding signal (z-score),GalNAc(b1-3)GlcNAc,2.81
same,glycan array binding signal (z-score),GalNAc(b1-4)Gal(b1-4)Glc,-0.339
same,glycan array binding signal (z-score),GalNAc(b1-4)GlcNAc,2.7
same,glycan array binding signal (z-score),[6],2.86
same,glycan array binding signal (z-score),[7],2.33
same,glycan array binding signal (z-score),[8],2.58
same,glycan array binding signal (z-score),GalNAc(b1-4)GlcNAc6S,2.65
same,glycan array binding signal (z-score),GalNAc(b1-6)GalNAc,-0.512
same,glycan array binding signal (z-score),GalNAc3S(b1-4)GlcNAc,-0.474
same,glycan array binding signal (z-score),GalNAc3S(b1-4)GlcNAc3S,-0.51
same,glycan array binding signal (z-score),[9],-0.502
same,glycan array binding signal (z-score),GalNAc4S6S(b1-4)GlcNAc,-0.516
same,glycan array binding signal (z-score),GalNAc6S(b1-4)GlcNAc,2.47
same,glycan array binding signal (z-score),Glc(a1-4)Glc,-0.394
same,glycan array binding signal (z-score),[10],-0.459
same,glycan array binding signal (z-score),Glc(a1-6)Glc(a1-6)Glc,-0.306
same,glycan array binding signal (z-score),[11],-0.5
same,glycan array binding signal (z-score),Glc(b1-4)Glc,-0.408
